Results: PubChem BioAssay AID485297 (National Center for Advancing Translational Sciences (NCATS), 2010)
The campaign covered roughly 320,000 compounds. About 9,100 (2.8%) were called active. The inconclusive results got no clear call from the source; some entries with a clear call stand among them for comparison. Calls come from the whole dose curve; as a rule, active = well fitted activation curve with a large enough effect; inconclusive = small, poorly fitted or top-dose-only effect; inactive = no such curve, though single readings can be large or run the other way. No potency is given beside an inconclusive call; the fits are too rough.
Potency is the fitted concentration of half-maximal effect; tags give direction and shape of the fitted curve.

Test: qHTS Assay for Rab9 Promoter Activators; note: nearly all actives have a fitted effect of over 60% in size
Conditions: Huh7 Rab9 promoter-luciferase reporter, luminescence, 24 h; series mostly up to 9.22 µM
In short: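 Rab9 promoter-driven luciferase in stably transfected Huh7 cells; 1500 cells/well rested 2 h, exposed to compound in DMSO for 24 h at 37 °C, 5% CO2. Luminescence read 10 min after adding luciferase reagent at ambient temperature.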
With `CCOC(=O)c1cc(C(=O)Nc2ccccc2F)nn1C` the Potency was active: 2 µM.
In the case of `Cc1ccc[n+](CC(=O)Nc2ccc(N(C)C)cc2)c1`, the Potency is reported as “inactive”.
In the case of `COc1ccc(C2CC(c3ccccc3)=NN2C(=O)COC(=O)c2ccc(S(C)(=O)=O)cc2)cc1` (stereo not drawn), the Potency is reported as “inactive”.
For `CC12CCC(C(=O)Nc3nc4ccccc4s3)(OC1=O)C2(C)C` (stereo not drawn), the Potency was inconclusive [activator, partial curve].
In the case of `Cc1nnc(NC(=O)C2COc3ccccc3O2)s1` (stereo not drawn), the Potency is reported as inconclusive [activator, partial curve].
In the case of `O=C(O)c1ccc(N/N=C/c2cn(Cc3ccc(F)cc3)c3ccccc23)cc1`, the Potency is reported as active: 2.82 µM.
In the case of `C=CCn1cnc2c(NCc3ccccc3)ncnc21`, the Potency is reported as inconclusive [activator, partial curve].
For `Oc1cccc2ccc(/C=C/c3ccccc3Br)nc12`, the Potency was inconclusive [activator, single point].
In the case of `Cc1ccc2nc(SCC(=O)Nc3ccc4sc(C)nc4c3)c(C#N)cc2c1`, the Potency is reported as inconclusive [activator, single point].
With `N#CCc1nc(CSc2nc3ccccc3o2)cs1` the Potency was inconclusive [activator, partial curve].
For `Cc1ccc(C(=O)OCC(=O)NCc2ccc(Cl)cc2Cl)o1`, the Potency was “inactive”.
In the case of `Cc1nc(-c2ccc(NC(=O)c3cccs3)cc2)cs1`, the Potency is reported as active: 0.398 µM.
For `COCCNc1c(-c2cc3ccc(C)c(C)c3[nH]c2=O)nc2ccccn12`, the Potency was active: 0.708 µM.
For `O=C(COc1coc(CN2CCc3ccccc3C2)cc1=O)Nc1ccc(F)cc1F`, the Potency was “inactive”.
In the case of `CCOc1ccccc1N1CCN(C(=O)c2cn(CC3CCCCC3)nn2)CC1`, the Potency is reported as inconclusive [activator, single point].
For `CC(C)N1CN=C(Nc2nc3ccccc3o2)NC1`, the Potency was inconclusive [activator, partial curve].
With `O=C1NC(c2ccccc2Cl)=N/C1=C/c1ccco1` the Potency was inconclusive [activator, single point].
In the case of `COc1nc(C)ccc1-c1noc(-c2cccnc2)n1`, the Potency is reported as inconclusive [activator, partial curve].
In the case of `CCN(CC)CCCN1C(=O)C(=O)/C(=C(/O)c2ccc3c(c2)OCCO3)C1c1ccco1` (stereo not drawn), the Potency is reported as inconclusive [activator, single point].
For `COc1ccc(NC(=O)CCCC(=O)c2ccccc2)cc1OC`, the Potency was “inactive”.
For `CCOc1ccc(N(CC(=O)NCc2ccccc2OC)S(C)(=O)=O)cc1`, the Potency was inconclusive [activator, single point].
For `CCCCNC(=O)CCC(=O)Nc1ccc2nc(N3CCC(C)CC3)cc(C)c2c1`, the Potency was inconclusive [activator, partial curve].
In the case of `CCCCOc1ccc(CSc2nncn2N)cc1`, the Potency is reported as inconclusive [activator, partial curve].
In the case of `COCCNCCCCOc1ccccc1-c1ccccc1`, the Potency is reported as “inactive”.
In the case of `Cc1ccccc1OCC(=O)N=Nc1c(O)n(C)c2ccccc12`, the Potency is reported as “inactive”.
In the case of `O=C(N/N=C/c1ccncc1)c1ccccn1`, the Potency is reported as inconclusive [activator, single point].
In the case of `COc1ccc(CCNC(=O)c2ccc3nc(N4CCCCC4)sc3c2)cc1OC`, the Potency is reported as inconclusive [activator, partial curve].
With `CC(=O)Nc1cc(C(=O)N(C)Cc2ccccc2)ccc1S(=O)(=O)c1ccc(C)cc1` the Potency was “inactive”.
For `Cc1[nH]n(C(N)=S)c(=O)c1N=Nc1ccc(Cl)cc1Cl`, the Potency was active: 3.98 µM.
With `O=C(Nc1cccc(O)c1)c1ccc(C(=O)c2ccccc2)o1` the Potency was inconclusive [activator, single point].
In the case of `Cc1sc2ncnc(N3CCC(C(=O)NNC(=O)COc4ccc(Br)cc4)CC3)c2c1C`, the Potency is reported as “inactive”.
With `Cc1ccc(NS(=O)(=O)c2ccc(C(=O)N3CCN(S(=O)(=O)c4ccccc4)CC3)cc2)cc1` the Potency was “inactive”.
With `O=c1c2ccccc2nc(N/N=C/c2ccccc2)n1O` the Potency was inconclusive [activator, partial curve].
In the case of `CCCC(NC(=S)NCC1CCCO1)C12CC3CC(CC(C3)C1)C2` (stereo not drawn), the Potency is reported as “inactive”.
For `COc1ccc2cc(/C=C/C(=O)c3ccco3)c(Cl)nc2c1`, the Potency was inconclusive [activator, single point].
For `COc1cccc(C2Nc3ccccc3C(=O)N2c2ccc(F)cc2)c1O` (stereo not drawn), the Potency was inconclusive [activator, partial curve].
For `COc1ccc(/C=N/OCc2ccccc2C#N)c(OC)c1`, the Potency was inconclusive [activator, partial curve].
In the case of `CC(C)Sc1nc2ccc(Br)cc2[nH]1`, the Potency is reported as inconclusive [activator, partial curve].
In the case of `CCNC(=O)/C(=C/c1ccco1)NC(=O)/C=C/c1ccccc1`, the Potency is reported as “inactive”.
With `Cn1c(-c2ccc3ccccc3n2)nc2cnccc21` the Potency was active: 2.24 µM.
With `Cc1cc(/C=N/NC(=O)c2cccs2)c(C)n1-c1ccccc1` the Potency was active: 0.794 µM.
With `Cc1cc2c(C)nc(N/N=C/c3ccccc3)nc2o1` the Potency was inconclusive [activator, single point].
With `Cc1ccc(SSc2cc(C)ccc2N)c(N)c1` the Potency was active: 0.794 µM.
In the case of `CN(CC(=O)Nc1ccccc1Br)C(=O)CNC(=O)c1ccc(Oc2ccccc2)cc1`, the Potency is reported as “inactive”.
For `OCC(CO)(CO)NCC(O)CN1c2ccccc2Sc2ccccc21` (stereo not drawn), the Potency was inconclusive [activator, partial curve].
With `CN(C)c1ccc(SC#N)cc1` the Potency was “inactive”.
With `O=C(Nc1ccc(Br)cc1)c1ccc(N2C(=O)C3CC=C(Cl)CC3C2=O)cc1` (stereo not drawn) the Potency was “inactive”.
In the case of `COc1ccccc1-c1cc(C(=O)Nc2cc(C)on2)no1`, the Potency is reported as inconclusive [activator, single point].
For `CC(=O)Nc1ccc(NS(=O)(=O)c2cccc3nonc23)cc1`, the Potency was “inactive”.
With `COc1ccc(C(=O)Nc2ccc(Cc3ccncc3)cc2)cc1Br` the Potency was inconclusive [activator, single point].
With `COc1ccc(/C=N/N=C2/NC(=O)C(c3ccccc3)(c3ccccc3)S2)cc1` the Potency was inconclusive [activator, partial curve].
In the case of `O=C(c1ccco1)N1CCN(Cc2ccc(F)cc2Cl)CC1`, the Potency is reported as inconclusive [activator, partial curve].
For `COc1ccc(OC)c(NC(=O)Nc2cccc3ccccc23)c1`, the Potency was “inactive”.
In the case of `Cc1nc(-c2ccc(C(=O)Nc3ccccc3F)cc2)cs1`, the Potency is reported as inconclusive [activator, partial curve].
With `CCN1CC(CN(C)Cc2cn(-c3ccc(C)cc3)nc2-c2ccc(F)cc2)CC1=O` (stereo not drawn) the Potency was “inactive”.
With `CC(C)(C)c1cc(C(=O)NCc2cc(F)cc3c2OCOC3)n(Cc2ccccc2)n1` the Potency was inconclusive [activator, single point].
With `O=C(COc1ccc2ccccc2c1Br)N1CCCCC1` the Potency was inconclusive [activator, single point].
In the case of `O=[N+]([O-])c1ccc(COc2ccccc2/C=N/O)cc1`, the Potency is reported as inconclusive [activator, partial curve].
For `O=C(Nc1ccc(Br)cc1)Nc1ccccc1Cl`, the Potency was inconclusive [activator, partial curve].
In the case of `O=C(N/N=C1\CCCCc2ccccc21)c1ccccn1`, the Potency is reported as inconclusive [activator, partial curve].
With `CCN1C(=O)/C(=C/N2CCc3ccccc3C2)SC1=S` the Potency was inconclusive [activator, single point].
In the case of `CCOc1ccccc1NC(=O)N1CCC(C(=O)c2ccc(F)cc2)CC1`, the Potency is reported as “inactive”.
For `S=c1[nH]c2ccc3ccccc3c2[nH]1`, the Potency was inconclusive [activator, single point].
With `COc1ccc(C(=O)NC(C)c2cnn(-c3ccccn3)c2C)o1` (stereo not drawn) the Potency was “inactive”.
In the case of `Cc1ccc(CCC(=O)Nc2ccccc2C(=O)O)o1`, the Potency is reported as inconclusive [activator, single point].
In the case of `Cc1nn(C(=O)c2ccoc2C)c(N)c1-c1ccccc1`, the Potency is reported as inconclusive [activator, partial curve].
With `CC(C)CNC(=O)c1cc(-c2ccc(Cl)c(Cl)c2)on1` the Potency was active: 4.47 µM.
For `O=c1c2c(nc3cc(-c4ccccc4)[nH]n13)CCC2`, the Potency was inconclusive [activator, full curve, poor fit].
For `Fc1ccccc1NC(=S)N1CCC(c2ccccc2)C1` (stereo not drawn), the Potency was inconclusive [activator, single point].
With `CC(=O)c1ccc(OCCCC(=O)Nc2ccc3c(c2)OCCO3)cc1` the Potency was “inactive”.
For `Cc1ccc(-c2cc(C(=O)N/N=C/c3ccccc3O)n[nH]2)o1`, the Potency was “inactive”.
In the case of `Cn1ccc(C(=O)N/N=C/c2c[nH]c3ccccc23)n1`, the Potency is reported as inconclusive [activator, partial curve].
In the case of `O=c1oc(Nc2ccccc2F)nc2ccccc12`, the Potency is reported as inconclusive [activator, partial curve].
With `Cc1ccc(Nc2cc(C)nc(-c3ccccc3)n2)cc1` the Potency was inconclusive [activator, single point].
With `Cc1ccc(OCc2csc(N)n2)cc1` the Potency was active: 3.98 µM.
In the case of `O=C(Nc1ccc(N2CCOCC2)cc1)c1ccc2c(c1)OCO2`, the Potency is reported as inconclusive [activator, partial curve].
With `CCC1CCc2c(sc(NC(=O)c3cccnc3)c2C(N)=O)C1` (stereo not drawn) the Potency was inconclusive [activator, single point].
In the case of `O=C(Nc1nc2c(s1)CCCC2)c1ccc(N2C(=O)CCC2=O)cc1`, the Potency is reported as inconclusive [activator, single point].
